The list shows a part of the results.
Key:
[1] = system: HSkMC (human skeletal muscle cells); assay: cytotoxicity call (relative viability < 0.9); details: 10 µM
[2] = system: HepG2; assay: cytotoxicity call (relative viability < 0.9); details: 10 µM
[3] = system: S. aureus RN4220; assay: growth inhibition call (relative growth <= 0.2); details: 50 µM

COc1ccc(CN(C)C[C@H]2Oc3ccc(NC(=O)CCN4CCOCC4)cc3C(=O)N([C@H](C)CO)C[C@H]2C)cc1
inactive: cytotoxicity call [1] | cytotoxicity call [2] | growth inhibition call [3]

C[C@@H]1CN([C@H](C)CO)S(=O)(=O)c2ccc(-c3ccc(F)cc3)cc2O[C@H]1CN(C)C(=O)C1CCOCC1
inactive: cytotoxicity call [1] | cytotoxicity call [2] | growth inhibition call [3]

COc1ccccc1CNC(=O)C[C@@H]1CC[C@@H]2[C@H](COC[C@H](O)CN2C(=O)Nc2ccc(F)cc2)O1
inactive: cytotoxicity call [1] | cytotoxicity call [2] | growth inhibition call [3]

CC(C)CC#Cc1ccc2c(c1)O[C@H](CN(C)C(=O)c1cccnc1)[C@H](C)CN([C@H](C)CO)S2(=O)=O
inactive: cytotoxicity call [1] | cytotoxicity call [2] | growth inhibition call [3]

C[C@H](CO)N1C[C@H](C)[C@H](CN(C)C(=O)NC2CCCCC2)Oc2ccc(NC(=O)C3CC3)cc2C1=O
inactive: cytotoxicity call [1] | cytotoxicity call [2] | growth inhibition call [3]

C[C@H](CO)N1C[C@H](C)[C@@H](CN(C)C(=O)Nc2cccc3ccccc23)Oc2ccc(NC(=O)Cc3cn(C)c4ccccc34)cc2CC1=O
inactive: cytotoxicity call [1] | cytotoxicity call [2] | growth inhibition call [3]

CC(C)NC(=O)N[C@@H]1C=C[C@@H](CC(=O)O)O[C@@H]1CO
inactive: cytotoxicity call [1] | cytotoxicity call [2] | growth inhibition call [3]

C[C@@H]1CCCCO[C@H](CN(C)Cc2ccc(C(=O)O)cc2)[C@H](C)CN([C@@H](C)CO)C(=O)c2cc(NC(=O)Nc3ccccc3)ccc2O1
inactive: cytotoxicity call [1] | cytotoxicity call [2] | growth inhibition call [3]

Cc1cccc(S(=O)(=O)N2C[C@H](O)COC[C@H]3O[C@H](CC(=O)NCc4ccc5c(c4)OCO5)CC[C@@H]32)c1
inactive: cytotoxicity call [1] | cytotoxicity call [2] | growth inhibition call [3]
